Results as given in the RNAGym collection of RNA variant scans (doi:10.1093/nar/gkz1192).
Read counts are not given, so values of variants with three or more changes are uncertain.

B1: CPEB3 Ribozyme (parent)
chain: UAACAGGGGGCCACAGCAGAAGCGUUCACGUCGCAGCCCCUGUCAGAUUCUGGUGAAUCUGCGAAUUCUGCUGUAUAUCUC

Variants of: B1
Test: self-cleavage, relative activity (ratio to wild type); higher = more cleavage; in vitro, sequencing
Outline: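 Relative activity compares each variant's cleaved/total read fraction with that of the unmutated ribozyme. To get these fractions, barcoded CPEB3 ribozyme libraries from rounds of error-prone PCR were transcribed with T7 RNA polymerase for 5 hours at 37°C and then given 15 min of DNase I treatment before EDTA was added. The RNAs were reverse transcribed with template switching and sequenced on Illumina, and DNA sequencing linked barcodes to variants. A minimum of 5 reads applied, and three batches were averaged.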
Variant A20G U58C U60C U69C has a self-cleavage of 0.2. A20G U58C U69C showed a self-cleavage of 0.3. For A20G U58C U72C, the self-cleavage was 0.16. Variant A20G U60C G61C has a self-cleavage of 0.09. A20G U60C U66C U72A gave a self-cleavage of 0.23. Work on A20G U60C U78C yielded a self-cleavage of 0.42. Work on A20G U60G U76C yielded a self-cleavage of 0.23. Work on A20G U66A U67A yielded a self-cleavage of 0.33. In the case of A20G U66A U69C, the self-cleavage is reported as 0.24. With A20G U66C U80C the self-cleavage was 0.49. With A20G U67C A77G the self-cleavage was 0.96. Variant A20G U69A U72G U80A has a self-cleavage of 0.2. A20G U69C A77G showed a self-cleavage of 0.51. In the case of A20G U69C C71G, the self-cleavage is reported as 0.29. A20G U72A A75G showed a self-cleavage of 1.03. A20G U72C U74A gave a self-cleavage of 1.01. Work on A20G U72C U76C yielded a self-cleavage of 0.3. For A20G U76A U78C, the self-cleavage was 0.99. Variant A20U A21C U54C U67C has a self-cleavage of 0.12. Work on A20U A21G A28G U80C yielded a self-cleavage of 0.07. Work on A20U A21G C23U U31C A45G U72A U78A yielded a self-cleavage of 0.07. Variant A20U A21G G52U has a self-cleavage of 0.18. A20U A21G U25C G30C U41C C68A U78C gave a self-cleavage of 0.04. A20U A21G U26C U31C C39U U60C A64U gave a self-cleavage of 0.04. Variant A20U A21G U31A U41C G55A G73A has a self-cleavage of 0.43. A20U A21G U31C G46C A64U C71U U80C showed a self-cleavage of 0.07. Work on A20U A21G U41A U49C U78C yielded a self-cleavage of 0.07. A20U A21G U41C showed a self-cleavage of 0.18. A20U A21G U49C U54C A57U A75U showed a self-cleavage of 0.08. In the case of A20U A21U A35G U48C U60A, the self-cleavage is reported as 0.09. In the case of A20U A21U U48C U80C, the self-cleavage is reported as 0.21. Work on A20U A21U U60G yielded a self-cleavage of 0.2. For A20U A21U U66C, the self-cleavage was 0.32. A20U A28G A35U gave a self-cleavage of 0.22. A20U A28G A47G U78C showed a self-cleavage of 0.1. For A20U A28G G33A U54C U69C, the self-cleavage was 0.07. Variant A20U A28G U48C A56U has a self-cleavage of 0.22. A20U A28G U49C A65G U80A gave a self-cleavage of 0.08. Variant A20U A28U A64G has a self-cleavage of 0.08. For A20U A28U C37A U58C, the self-cleavage was 0.09. With A20U A28U C39U A45G G55U the self-cleavage was 0.15. A20U A28U U43C gave a self-cleavage of 0.13. Work on A20U A28U U60A U72C yielded a self-cleavage of 0.13. With A20U A28U U66C the self-cleavage was 0.22. A20U A28U U78C gave a self-cleavage of 0.19. In the case of A20U A35C U48C, the self-cleavage is reported as 0.1. With A20U A35C U60C the self-cleavage was 0.16. A20U A35G A47G A57G showed a self-cleavage of 0.33. A20U A35G U41A A47G A57G U69A showed a self-cleavage of 0.08. In the case of A20U A35G U66C U72C, the self-cleavage is reported as 1.03. For A20U A35G U69C, the self-cleavage was 0.48. In the case of A20U A35U A56G, the self-cleavage is reported as 0.12. A20U A35U C59G showed a self-cleavage of 0.29. Work on A20U A35U U49C yielded a self-cleavage of 0.15. Variant A20U A35U U51A U58C A64G U72A has a self-cleavage of 0.07. Work on A20U A35U U60C yielded a self-cleavage of 0.08. Variant A20U A35U U72C has a self-cleavage of 0.05. Variant A20U A35U U76A has a self-cleavage of 0.07. Variant A20U A45C C62G has a self-cleavage of 0.16. For A20U A45C U69C U72C, the self-cleavage was 0.24. For A20U A45G A47G U49C U72A, the self-cleavage was 0. In the case of A20U A45G A65G U69A, the self-cleavage is reported as 0.23. For A20U A45G U54C, the self-cleavage was 0.14. A20U A45G U67C U80A gave a self-cleavage of 0.15. A20U A45U U48A U80C showed a self-cleavage of 0.49. Variant A20U A45U U51A A56U U69A U76A U78A has a self-cleavage of 0.14. Work on A20U A47G A56G yielded a self-cleavage of 0.19. Work on A20U A47G A65G yielded a self-cleavage of 0.29. With A20U A47G U49C U54G A56U A75U the self-cleavage was 0.11. A20U A47G U72C showed a self-cleavage of 0.23. With A20U A47G U72C U76C A77G the self-cleavage was 0.15. Work on A20U A56G A57G yielded a self-cleavage of 0.44. Variant A20U A56G A57G A64G has a self-cleavage of 0.09. Variant A20U A56G U58C has a self-cleavage of 0.37. In the case of A20U A56G U74C A75U, the self-cleavage is reported as 0.37. A20U A56U U78C showed a self-cleavage of 0.27. With A20U A57G U80C the self-cleavage was 0.45. A20U A64C U66C gave a self-cleavage of 0.11. A20U A64G U72C showed a self-cleavage of 0.28. Work on A20U A64G U80C yielded a self-cleavage of 0.21. Work on A20U A64U U66C yielded a self-cleavage of 0.23. Work on A20U C23A U31C yielded a self-cleavage of 0.17. Variant A20U C23A U72A A75U U80A has a self-cleavage of 0.04. A20U C23U A64G U66C U69A gave a self-cleavage of 0.1. A20U C23U U26C A35G C37U U43C showed a self-cleavage of 0.09. Variant A20U C23U U41C U48A U74C has a self-cleavage of 0.21. A20U C23U U49C A56G A57G gave a self-cleavage of 0.13. A20U C27A C38G G46U U48C U72C gave a self-cleavage of 0.03. A20U C29A U43G gave a self-cleavage of 0.44. A20U C29U A47G U51G C59U A77U gave a self-cleavage of 0.21. Variant A20U C29U A65G has a self-cleavage of 0.11. Variant A20U C29U C38U has a self-cleavage of 0.14. For A20U C29U U41A, the self-cleavage was 0.21. Variant A20U C29U U66C has a self-cleavage of 0.09. With A20U C32A A56U the self-cleavage was 0.19. In the case of A20U C32U A35G C44U, the self-cleavage is reported as 0.07. In the case of A20U C32U A56G, the self-cleavage is reported as 0.36. For A20U C32U U69A, the self-cleavage was 0.1. A20U C34A U80A showed a self-cleavage of 0.04. A20U C34G C68G showed a self-cleavage of 0.1. In the case of A20U C34U U67C, the self-cleavage is reported as 0.14. With A20U C37G U43A A56U the self-cleavage was 0.08. In the case of A20U C38A U43A A45G A64G, the self-cleavage is reported as 0.1. A20U C40U A64G U72A gave a self-cleavage of 0.16. Variant A20U C40U G53A U54C has a self-cleavage of 0.13. A20U C40U U72A gave a self-cleavage of 0.11. A20U C40U U76C showed a self-cleavage of 0.25. In the case of A20U G22A U41A, the self-cleavage is reported as 0.13. A20U G22U A45U gave a self-cleavage of 0.31. In the case of A20U G22U U48C U78C U80A, the self-cleavage is reported as 0.18. In the case of A20U G24A A35U C37A U43C U60C A77G, the self-cleavage is reported as 0.07. With A20U G24A U25C U49C the self-cleavage was 0.2. In the case of A20U G24A U31G C40A A57G A64U U76C, the self-cleavage is reported as 0.07. A20U G24A U43C A56G gave a self-cleavage of 0.18. Variant A20U G24C U25C U31C U48C A56U U66C has a self-cleavage of 0.11. In the case of A20U G30A A35G U41C, the self-cleavage is reported as 0.06. With A20U G30A U31C the self-cleavage was 0.1. For A20U G30A U43A A64U U76A U80C, the self-cleavage was 0.13. A20U G30A U67A U69C showed a self-cleavage of 0.1. Variant A20U G30U G33U has a self-cleavage of 0.08. Variant A20U G30U U41C U54G U67C has a self-cleavage of 0.11. A20U G30U U43A A45G A47G U51C U67A showed a self-cleavage of 0.05. With A20U G30U U60C U74A A75G the self-cleavage was 0.06. A20U G36A A45U gave a self-cleavage of 0.12. A20U G36C A57G C59U showed a self-cleavage of 0.1. A20U G36C U67C gave a self-cleavage of 0.06. With A20U G36U U41C G52A the self-cleavage was 0.12. Variant A20U G42U U43C has a self-cleavage of 0.24. Variant A20U G52A U78G has a self-cleavage of 0.33. A20U G52C U60C showed a self-cleavage of 0.11. In the case of A20U G52U U80C, the self-cleavage is reported as 0.45. With A20U G53A U54C the self-cleavage was 0.2. A20U G53C A64U U67C U69A gave a self-cleavage of 0.12. A20U G73A A75U showed a self-cleavage of 0.41. Variant A20U U25A A28G G63A A64G has a self-cleavage of 0.1. A20U U25A A28U A35G C44U showed a self-cleavage of 0.02. With A20U U25A A35G C50U U58A U80C the self-cleavage was 0.05. In the case of A20U U25A U69C U72C U80C, the self-cleavage is reported as 0.06. Work on A20U U25C A28G yielded a self-cleavage of 0.2. A20U U25C A28G A56G U72C gave a self-cleavage of 0.22. Work on A20U U25C A28G A65G yielded a self-cleavage of 0.3. A20U U25C A28G U66G gave a self-cleavage of 0.3. A20U U25C A28U U51A G63U showed a self-cleavage of 0.12. A20U U25C A35G U43C showed a self-cleavage of 0.25. Variant A20U U25C A35U U60C A75U has a self-cleavage of 0.05. For A20U U25C A47G A56U, the self-cleavage was 0.14. A20U U25C A64G U72C A77U C79A showed a self-cleavage of 0.08. Variant A20U U25C C39A G63U has a self-cleavage of 0.18. In the case of A20U U25C G30U U69G U76G, the self-cleavage is reported as 0.04. A20U U25C U26A A45G U69C showed a self-cleavage of 0.05. Variant A20U U25C U26G A35G U72A U78C has a self-cleavage of 0.01. For A20U U25C U31C A35U U41C A75G U78A, the self-cleavage was 0.14. With A20U U25C U41A U72C the self-cleavage was 0.06. Work on A20U U25C U41C U49A U72A A75C yielded a self-cleavage of 0.06. For A20U U25G A35U U72C, the self-cleavage was 0.17. In the case of A20U U26A A45G U54C C62U U78C, the self-cleavage is reported as 0.1. In the case of A20U U26A A57U U60C C62G A65G, the self-cleavage is reported as 0.05. Variant A20U U26A C29U U41C U51A A57G has a self-cleavage of 0.06. Variant A20U U26A U48C U51A has a self-cleavage of 0.22. In the case of A20U U26C A28G C40A U58A U78C, the self-cleavage is reported as 0.31. With A20U U26C A28U U67C A77G the self-cleavage was 0.06. For A20U U26C A35G U43G A45G C62U, the self-cleavage was 0.06. Variant A20U U26C A65G has a self-cleavage of 0.34. For A20U U26C C29G A65G, the self-cleavage was 0.1. A20U U26C C38G U41C A45C G61A showed a self-cleavage of 0.06. With A20U U26C C44U G52A A75U the self-cleavage was 0.04. Variant A20U U26C G53A C62U has a self-cleavage of 0.1.
